From the RNAGym collection of RNA variant scans (doi:10.7554/elife.90254)
Read counts are not given, so values of variants with three or more changes are uncertain.

B1: OR4K15 (parent)
chain: GUUAACGGUCAUAGGCCAUGGAAACUAGGAGCACCAUUUCGCUGCCAGUGAAGAAAUGAACAAAGAAAAUCUGGGCCAGGCAGGCAUCAAAAGAAAUAGUCUUGCGCUCAACCAGAAAGUCUGUAAUCAUUUUAAGGGUA

Variants of: B1
Assay: self-cleavage, relative activity (ratio to wild type); higher = more cleavage; in vitro, sequencing; the parent is a self-cleaving ribozyme

Row | Variant | self-cleavage
1 | U9A A95C A111G A117G | 0.01
2 | U9A C40U U43A U57C A126G | 1.3
3 | U9C A11G A22C A52U | 1.39
4 | U9C A24G A60U | 1.43
5 | U9A U19A A55G A62G A140G | 0.56
6 | U9C A89U A118G | 2.11
7 | C6U A18G A60G A82G | 0.5
8 | U9C A22U A60C U100C | 1.68
9 | G8A U12A U26C A114G | 0.67
10 | U9A U122C A129G | 0.58
11 | U9A A68G A69G U70C | 0.12
12 | U9C A33G U102C | 2.18
13 | G8A U49C U102C | 2.53
14 | U9C A13G A22G U49C A51U A90C U108C | 0.06
15 | U9A G73A A92G U120C | 0.07
16 | U9C A64G A118G | 1.48
17 | G7A A90U U130C | 1.23
18 | U9C A23G C40G A63G | 0.85
19 | U9C A11C A54G G80A A90G | 0.32
20 | U9C A47G A52U A94U | 1.27
21 | U9C A67U A89U | 2.33
22 | U9C A30G A59G A68G U103C | 0.74
23 | C6A A23G A27C | 0.35
24 | U9C A62G A78C A89U U120C | 0.21

Row | Variant | self-cleavage
25 | U9C A63G A68G | 1.16
26 | U9C A33G A67G A111G A126G | 0
27 | U9C A24G U43G A64G | 0.76
28 | C6U U103C U127A | 1.73
29 | C6U A135G A140G | 1.77
30 | G8A A30G C71U U131C | 0.46
31 | U9C A90G U122G | 0.53
32 | U9C A64G A95G | 2.01
33 | A5U U43C A52C | 0.7
34 | G8A U9C A52G A111G A116G | 0.04
35 | G7U U12C G41A | 1.31
36 | U9A G48A A52G A56G U100C | 1.94
37 | G7A A11G A86G U87C A89G U102A U103A | 0.05
38 | U9C A13G A36U A51U U102A A110U | 1.19
39 | U9C A69G U102C | 1.74
40 | U9C A68G A82G A96G U130C | 0.44
41 | C6A U37C A89G | 0.68
42 | C6U A56G A98G | 0.26
43 | U9C A36G U70C | 1.36
44 | U9C A66G U100C | 1.7
45 | U9C A67G C107A A126G | 0.01
46 | U9C A60G A66U A86U U102A | 0.68
47 | U9C A33G A69U | 1.49
48 | U9C A24G A78G A135G | 0.11

Row | Variant | self-cleavage
49 | G7A G28A A62U A82G A135G | 0.47
50 | C6U G29A U43A | 1.34
51 | C6U A68G U97C A114C | 0.06
52 | U9A G31A A54G A67G | 1.26
53 | G7A A56G G83A A110G | 0.06
54 | C6A A86G A110G A118G | 0.05
55 | U9A U12G A129G | 0.15
56 | U9C A30U A52G U131C | 1.22
57 | U9A A63G A110C U124A | 0.12
58 | U9C A78G A90U A118G | 0.41
59 | G8U U9C A18U A78G A91G A111C | 0
60 | U9C A64G U103C A117G | 1.69
61 | G7A A23U U37A | 1.22
62 | U9C A18G A22G A67G A116G A126G | 0.55
63 | U9C A78G A96G U97C U102C | 0.17
64 | U9C A47U U72C U139C | 0.15
65 | U9C A47G G75A A94G | 0.15
66 | U9C A66U U70C G84A A96G | 0.69
67 | U9C A24G A66U | 0.6
68 | U9C A22U A89G | 1.52
69 | G7U A56G U72C | 0.58
70 | U9C A11G A23G A54G A67G | 1.17
71 | G7A U39C A110C | 0.28
72 | U9C C16U U19C A47U U72C U130A | 0.23

Row | Variant | self-cleavage
73 | C6U A24U A54G A78U A89C A116G A140G | 0.08
74 | U9C A24C A89U A111G | 0.04
75 | G8A A82G A90G U102C U130C | 0.69
76 | G7U C34U U72C | 0.37
77 | G8A U72C A95G U103C U130C | 0.14
78 | U9C A55U U131C | 1.67
79 | U9C A33G U38C U39C A59U A90G U131C | 0.19
80 | G7A U37C A95G C113G U127C | 0
81 | U9C A59G A89C U122C | 1.82
82 | U9A A64G A116U | 0.06
83 | U9C A59G U103C U108C | 0.04
84 | C6A U9C U122C | 0.62
85 | G7A G74A A118U | 0.11
86 | U9C A22G U127C | 1.05
87 | U9A A66U A95G U97C C113U | 0.02
88 | U9C A52G U103C | 1.71
89 | U9A U87A U122C | 0.68
90 | U9C A116U U120C A134G | 0.11
91 | C6A A18G G119C U130A | 0.68
92 | U9C A51G U102C | 1.78
93 | C6U A68G U122C | 0.66
94 | U9A A33U U37C A94G | 1.64
95 | U9C A56G U97C A116G U127C | 0.17
96 | A5U U57C A125U | 1.01

Row | Variant | self-cleavage
97 | U9C A30C A135G | 1.55
98 | U9C A24G U38C A52G | 0.15
99 | G8A U19C U103C | 1.08
100 | C6U U49G U108C | 0.02
101 | U9A A33G U39A C45U A51G A60G | 0.84
102 | U9C A13G A125U | 1.78
103 | G7A A18G A78G U108C A114G | 0
104 | G7A A33U A82U U100C A117G | 0.14
105 | G8U U9C U19C | 1.85
106 | C6U A13G U39A | 0.53
107 | U9C A18U A22G U102A | 0.87
108 | G7U A18G A68G | 0.94
109 | C6U A33G U124A | 0.82
110 | U9C A24U U49A A52G | 0.96
111 | G7A A11U A22U A82G A90G | 0.43
112 | U9A A51U U102C | 1.51
113 | G7U A18G A36G | 0.67
114 | U9C A90G A126G A129G | 0.47
115 | C6U U57C A63G A134G | 1.27
116 | U9C A36G A118G | 1.21
117 | G8A A55G A89G | 1.19
118 | U9A U49C A86G | 1.07
119 | U9C A24G A55G | 0.83
120 | U9A A59G A78G A111G | 0.03

Row | Variant | self-cleavage
121 | U9C A23G A33G A64G | 0.25
122 | U9A C10A A22G | 1.56
123 | U9A A59G A69G | 0.24
124 | U9C A33G U43C A126G A135G | 0.11
125 | U9C A60G C77A | 1.38
126 | U9A U39C A63G A129G U131C | 1.16
127 | U9A A23G U37C A96U A134G | 1.02
128 | U9A A11G A62C U103C | 0.95
129 | U9C A24G A67G G74U | 0.14
130 | U9C A60G U87C | 0.88
131 | G7A A89G A111G | 0
132 | U9C A18G A96G | 1.83
133 | U9C A68G A116U U133A | 0.67
134 | U9C A23G U122C | 0.47
135 | C6U U39C A117G A126G | 1.37
136 | U9A A11G A18G A67G A89G A94G A116G | 0.25
137 | U9A A33G U38A C81A A125U | 0.16
138 | U9C A82G U103C U124A | 1.62
139 | U9C A11G A111U | 0.04
140 | U9C A13G A24G G73A A91G A140U | 0.26
141 | G7U U39C U122A | 1.12
142 | G8A A116G U120C | 0.49
143 | U9A A118G U122C | 1.03
144 | G7A A60G A82U U87C U102C | 0.13

Row | Variant | self-cleavage
145 | G8A G28A A82U | 0.23
146 | C6U A52G U103C | 0.76
147 | U9A A22G U39C A59G | 1.79
148 | U9C A56G A59U | 0.91
149 | U9C A33G U39C A92G C128U | 0.62
150 | U9A A91G A92U | 1.31
151 | U9C A51G A68G A114G A134G | 0.43
152 | U9C A54G G75C U120C | 0.16
153 | G7A A24C U102C A116G | 1.57
154 | G7A A11U G28A U122C | 1.27
155 | U9C A51G U57C | 0.29
156 | G8A U19A A30G G106U A110G | 0.01
157 | U9C A33G U38C A96G | 1.34
158 | G7A A33U A94G A129G A134G | 1.21
159 | A5U U102G A126G | 0.35
160 | U9A A18U A54U U72G | 0.28
161 | U9C A67C A116G | 1.86
162 | G7A U19C A51G A52U A67G A94G | 1.17
163 | U9C A11G U72A | 0.74
164 | U9A U39C A69G | 0.76
165 | U9C A47G U57A A94G U102C | 0.84
166 | G7A A33G G73A A96G | 0.1
167 | U9C A56G G74A A91G A140U | 0.09
